{
  "source": "the supplement of paper PMC11417369",
  "note": "± gives the standard deviation of the averaged measurements. Some of the results follow.",
  "data": [
    {"test_system": "PfAP2-G AP2 domain (GST-tagged)", "assay": "gcPBM binding intensity (ln(normalized median fluorescence intensity)); higher = stronger DNA binding", "summary_of_the_method": "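GST-tagged P. falciparum DNA-binding domains produced in E. coli were incubated for 1 h on an Agilent 4 × 180k array of primer-extended double-stranded 36-bp intergenic genomic probes with negative controls. Binding intensity is the highest Masliner-normalised natural-log median intensity across replicate spots of either probe orientation, with bound protein detected by Alexa488 anti-GST antibody at 488 nm.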", "values": [
      {"sequence": "AAAAAAAAAAAAACTACACACATACAAATATTTATA [CACACA_site5430]", "gcPBM binding intensity (ln)": "9.875 ± 0.035"},
      {"sequence": "TACATACATACAGGAGTGCATATATCACAATTATTA", "gcPBM binding intensity (ln)": "10.2 ± 0.18"},
      {"sequence": "AGTATACTCGGACACACACACACATATATATATATA [CACACA_site5031]", "gcPBM binding intensity (ln)": "11.1 ± 0.51"},
      {"sequence": "AGTTATATGATTAATACACACAACAAATGTTTCTTC [CACACA_site1092]", "gcPBM binding intensity (ln)": "9.82 ± 0.14"},
      {"sequence": "AATTTGGTGTGTGTAAAAGTATGTGTCTATATTTAT [GTGCAC_negctrl_site166]", "gcPBM binding intensity (ln)": "10.4 ± 0.23"},
      {"sequence": "ATGTATGTTTATTACTATTTTGAGAATAGACTATAA [CACACA_negctrl_site1366]", "gcPBM binding intensity (ln)": "9.855 ± 0.021"},
      {"sequence": "TGCAAAAAATTCCACACACACACACCCATATAAATA [CACACA_site1230]", "gcPBM binding intensity (ln)": "10.2 ± 0.2"},
      {"sequence": "TCTAAAATAAATAATGCATGTTAAAAAAAAATATAT [TGCATGCA_site562]", "gcPBM binding intensity (ln)": "9.87 ± 0.057"},
      {"sequence": "ACGACTAAATATATGAGTACATATATATATAAATAT [XGTACX_site7522]", "gcPBM binding intensity (ln)": "11.4 ± 0.87"},
      {"sequence": "AAGAATCATATTTAAACACACATACAGATATATATA [CACACA_site5787]", "gcPBM binding intensity (ln)": "9.78 ± 0.028"},
      {"sequence": "CAAATATGTCTTATTCGTACACATATATATATATAT [XGTACX_site8817]", "gcPBM binding intensity (ln)": "11.2 ± 0.77"},
      {"sequence": "AAAAATTTGGCATACACACACACACCGACACAGACA [CACACA_site4489]", "gcPBM binding intensity (ln)": "10.4 ± 0.32"},
      {"sequence": "GTGCATATAAGGAAGTGTACGAAAAAAAATATTCCA [XGTACX_site8490]", "gcPBM binding intensity (ln)": "11.3 ± 0.79"},
      {"sequence": "TTTCTTTATAAATTAATATTCACAACACAAAATATA [CACACA_negctrl_site450]", "gcPBM binding intensity (ln)": "10.2 ± 0.26"},
      {"sequence": "AAGAAAATAAAAAATAAGCATAATATGATATGATAT [TGCATGCA_negctrl_site196]", "gcPBM binding intensity (ln)": "9.64 ± 0.3"},
      {"sequence": "ATAGAGTCATTCCTCACACACACGCTATATGAATAG [CACACA_site2047]", "gcPBM binding intensity (ln)": "10.1 ± 0.11"},
      {"sequence": "TTTATTAATAAGAAATGTACACAAAATTATTTCCAA [XGTACX_site5970]", "gcPBM binding intensity (ln)": "11.5 ± 0.95"},
      {"sequence": "GAGAAATTTATACATACACACATATATATATTATAT [CACACA_site4038]", "gcPBM binding intensity (ln)": "10.05 ± 0.071"},
      {"sequence": "TATCATGTTTTTATGGTGCATGAAATCACACATTGA", "gcPBM binding intensity (ln)": "9.97 ± 0.13"},
      {"sequence": "AATACAAACCAAAAAGTAAATACATCAACATGATCA [CACACA_negctrl_site140]", "gcPBM binding intensity (ln)": "9.72 ± 0.2"},
      {"sequence": "TAATTAAAATTAAGAAGTACATTTTACTTTTAATGC [XGTACX_site5120]", "gcPBM binding intensity (ln)": "11.3 ± 0.78"},
      {"sequence": "AAAAAATACTTATAAAGTACTAATATATATAAGCAG [XGTACX_site743]", "gcPBM binding intensity (ln)": "10.9 ± 0.48"},
      {"sequence": "TCCAAATGTTTGCGTTGTACTCTTTTTTTAAAACTA [XGTACX_site5148]", "gcPBM binding intensity (ln)": "11.5 ± 1"},
      {"sequence": "TACACCATGATACATACACACAGACATATACTCATT [CACACA_site4708]", "gcPBM binding intensity (ln)": "10.13 ± 0.028"},
      {"sequence": "ATTCCTCCCATGGAATGTACTCATCAAATAAATAAA [XGTACX_site6543]", "gcPBM binding intensity (ln)": "11.1 ± 0.84"},
      {"sequence": "CCTGAAATTTTATTATGTACATATTATAAAATGATT [XGTACX_site1434]", "gcPBM binding intensity (ln)": "11.2 ± 0.82"},
      {"sequence": "TGGCACTAAAAAAATAAACACACAGATTTATATAAT [CACACA_site8386]", "gcPBM binding intensity (ln)": "9.81 ± 0.18"},
      {"sequence": "ATAACCACATAAAATATAATTATATATATATATATA [CACACA_negctrl_site603]", "gcPBM binding intensity (ln)": "9.87 ± 0.26"},
      {"sequence": "AAAAAAAAAAAAAAAAAAAAAAATATATATATATAT [XGTACX_negctrl_site33]", "gcPBM binding intensity (ln)": "10.9 ± 0.43"},
      {"sequence": "AAGGAATATATATACATACACACATATATATATATA [CACACA_site1665]", "gcPBM binding intensity (ln)": "9.94 ± 0.3"},
      {"sequence": "AGTGGATGAGGACATACACACACACCGAAGTTGATA [CACACA_site9132]", "gcPBM binding intensity (ln)": "10.9 ± 0.64"},
      {"sequence": "AAATTTTCATGTGTTGCATGCTGAACTATTTTATCA [TGCATGCA_site856]", "gcPBM binding intensity (ln)": "9.875 ± 0.078"},
      {"sequence": "AATAAAAAGGAAAGGTATATGTGTGCCCTTGTGTTA [TGCATGCA_negctrl_site83]", "gcPBM binding intensity (ln)": "10.5 ± 0.16"},
      {"sequence": "TATTTTTTCCTTTGTTTTTTAAACTATCTTAACTAA [XGTACX_negctrl_site519]", "gcPBM binding intensity (ln)": 9.82},
      {"sequence": "AAATAAATAAAAAACACACACAAATAAATAAATATA [CACACA_site2249]", "gcPBM binding intensity (ln)": "9.905 ± 0.078"},
      {"sequence": "TTTCTATTTCCTTCACATCTTTTCATCTTTTTTTTT [CACACA_negctrl_site1110]", "gcPBM binding intensity (ln)": "9.9 ± 0.11"},
      {"sequence": "GACTTGAAGAAATAAGTGCAGAGTTTTATTTTAATT [GTGCAC_site9912]", "gcPBM binding intensity (ln)": "10.04 ± 0.071"},
      {"sequence": "AAAAAATTCCTATATACACACACGCACATATTTATA [CACACA_site6192]", "gcPBM binding intensity (ln)": "10.2 ± 0.15"},
      {"sequence": "ATATAATAAATATATTGTACATATGAATCTACTAAA [XGTACX_site7610]", "gcPBM binding intensity (ln)": "10.8 ± 0.52"},
      {"sequence": "TAAAAAATGATAGAAGTGCATAAAATAATATATATA [GTGCAC_site9904]", "gcPBM binding intensity (ln)": "10.03 ± 0.078"},
      {"sequence": "TATAATTTTTTTAATACACACAAATATTTATATATA [CACACA_site3042]", "gcPBM binding intensity (ln)": "9.94 ± 0.2"},
      {"sequence": "AATTAATGTTTTGTCACACAGTATGATTATATATAT [CACACA_site6143]", "gcPBM binding intensity (ln)": "10.1 ± 0.12"},
      {"sequence": "TATATATACATATACGCATGTAAATTCAAAAGTAAA [TGCATGCA_site956]", "gcPBM binding intensity (ln)": "9.96 ± 0.19"},
      {"sequence": "AAGAGAAATGGGCACACACACACATATTATATATAT [CACACA_site1531]", "gcPBM binding intensity (ln)": "10.7 ± 0.45"}
    ]}
  ]
}
